Consider four molecules from the supplement of paper PMC4604168 (melanoma cell lines).

Some test systems named below: G361; IPC-298; IST-MEL1; LB2518-MEL; LOXIMVI; MEL-HO; MZ2-MEL; MeWo; RPMI7951; RVH-421; SkMel28; SkMel2; SkMel30; SkMel5; UACC257; UACC62; WM115; WM1716; WM1745; WM3526.
Common to all, as to test: cell count relative to DMSO control; melanoma cells; higher = more viable cells
Conditions in all cases: library dose: standard library concentration; 72 h

Each structure is given as a SMILES string. Some of the results follow. Many values rest on one well or one pass, so single values are uncertain.
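Note: cells treated in 1,536-well plates, then fixed and DAPI-stained, with nuclei counted from automated high-throughput microscope images.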

Regarding `NC1(c2ccc(-c3nc4ccn5c(=O)[nH]nc5c4cc3-c3ccccc3)cc2)CCC1` + C[As](C)SC[C@H](NC(=O)CC[C@H](N)C(=O)O)C(=O)NCC(=O)O [Darinaparsin] (first compound 2 µM, partner dose 2 µM), the cell count with G361 stood at 90.1%; in the assay with IPC-298, 85%; in the assay on IST-MEL1 it was 73.5%; in the assay with LB2518-MEL, 75.7%; in the assay with LOXIMVI it was 73.8%; in the assay with MEL-HO it was 67.1%. For the same molecule, the cell count in the assay with MZ2-MEL worked out at 78.4%; in the assay with MeWo, 53.4%; in the assay on RPMI7951, 59.3%; in the assay with RVH-421 it was 55.1%; with SkMel28, 54.2%; in the assay with SkMel2 it was 63.4%. Further, the cell count was determined as 67.4% in the assay with SkMel30; 43.1% in the assay with SkMel5; 81.8% with UACC257; 55.4% with UACC62; 81.3% in the assay with WM115; 57.9% in the assay on WM1716. Besides, the cell count in the assay on WM1745 is 82.7%; in the assay on WM3526 it was 51.5%.

For `Cn1nnc2c(C(N)=O)ncn2c1=O` [temozolomide] + C/C(O)=C(\C#N)C(=O)Nc1cc(Br)ccc1Br [LFM-A13] (first compound 10 µM, partner dose 10 µM), the cell count came to 88.3% with G361; 84.4% in the assay on IPC-298; 81.9% in the assay on IST-MEL1; 102% in the assay on LB2518-MEL; 99.2% in the assay on LOXIMVI; 84.3% with MEL-HO. Moreover, the cell count was determined as 26.7% in the assay on MZ2-MEL; 97.8% in the assay with MeWo; 79.8% in the assay on RPMI7951; 85.9% in the assay on RVH-421; 41.5% with SkMel28; 122% with SkMel2. Further, the cell count in the assay with SkMel30 worked out at 66.1%; with SkMel5, 104%; in the assay with UACC257 it was 95.7%; in the assay with UACC62, 81.8%; in the assay on WM115, 109%; in the assay with WM1716, 116%. Also, the cell count in the assay on WM1745 is 94.2%; with WM3526, 83.5%.

Turning to `O=C(Nc1cc(C(F)(F)F)cc(C(F)(F)F)c1)c1cc(Cl)ccc1O` + N.N.[Cl][Pt][Cl] [cisplatin] (first compound 0.08 µM, partner dose 8 µM), the cell count stood at 85% in the assay on G361; 88.7% with IPC-298; 90.8% in the assay with IST-MEL1; 109% in the assay with LB2518-MEL; 49.3% in the assay with LOXIMVI; 82.2% in the assay on MEL-HO. The cell count with MZ2-MEL was found to be 76.8%; with MeWo, 92%; in the assay with RPMI7951 it was 113%; in the assay on RVH-421, 81.5%; with SkMel28, 111%; in the assay with SkMel2, 109%. Also, the cell count with SkMel30 was found to be 94.1%; with SkMel5 it was 97.8%; in the assay with UACC257, 75.5%; in the assay with UACC62, 97.7%; with WM115, 98.6%; with WM1716, 101%. Also, the cell count in the assay with WM1745 is 83.6%; in the assay on WM3526, 106%.

As to `COc1ccc(C2=N[C@@H](c3ccc(Cl)cc3)[C@@H](c3ccc(Cl)cc3)N2C(=O)N2CCNC(=O)C2)c(OC(C)C)c1` [Nutlin-3] + C[As](C)SC[C@H](NC(=O)CC[C@H](N)C(=O)O)C(=O)NCC(=O)O [Darinaparsin] (first compound 0.5 µM, partner dose 2 µM), the cell count with G361 stood at 60.9%; in the assay with IPC-298, 102%; with IST-MEL1 it was 100%; in the assay with LB2518-MEL, 60.3%; with LOXIMVI, 59.8%; with MEL-HO it was 102%. Moreover, the cell count was determined as 123% with MZ2-MEL; 80.6% in the assay with MeWo; 84% with RPMI7951; 66.5% in the assay on RVH-421; 58.4% in the assay on SkMel28; 126% with SkMel2. Further, the cell count with SkMel30 amounted to 71.1%; in the assay with SkMel5 it was 37.2%; with UACC257 it was 75.7%; in the assay on UACC62, 62.3%; in the assay with WM115, 57.8%; with WM1716, 60.4%. For the same molecule, the cell count in the assay with WM1745 stood at 100%; with WM3526, 82.1%.
